This is an account of results in the supplement of paper PMC8183993.

Values joined by “and” are separate entries in the source; they are usually repeats but may differ in a detail not shown here. Equal entries are not always repeated. Structures can show the parent of a compound that is named as a salt. Over roughly 3,100 compounds, “mean cytoplasmic OPP incorporation (global translation) relative to DMSO” has its median near 100; the lowest 2% begin near 56. The list shows a part of the results.

In this test the test system is U2OS. Briefly: mean cytoplasmic OPP incorporation (global translation) relative to DMSO (% of DMSO); higher = more protein synthesis. To be noted: 10 µM; 24 h. The protocol: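 Primary image-based screen in U2OS cells: compounds at 10 uM for 24 h, then a 1 h o-propargyl-puromycin (OPP) pulse, click labelling, and high-throughput microscopy. Mean cytoplasmic OPP intensity and nuclei count were normalised to DMSO wells within each plate (DMSO = 100) and averaged over triplicate plates.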
Turning to `CC(C)N(CCC(=O)c1ccc2ccccc2c1)Cc1ccccc1`, the “mean cytoplasmic OPP incorporation” value is 105 and 110.

With `COc1ccc(-c2cc3c(C)nc(N)nc3n([C@H]3CC[C@H](OCCO)CC3)c2=O)cn1`, the “mean cytoplasmic OPP incorporation” value was determined as 75.

With `Cn1c(=O)c(F)c(Nc2ccc(I)cc2F)c2c(=O)n(C[C@@H](O)CO)cnc21`, the “mean cytoplasmic OPP incorporation” value is 102. For `C/N=C(/NC#N)NCCSCc1csc(NC(=N)N)n1` [Tiotidine] the value was 101; for `CCN1/C(=C/C(C)=O)Sc2ccc(OC)cc21`, 99.1; for `CC(=O)OC(C)C[N+](C)(C)C` (centres undefined) [Methacholine chloride], 105. The result for `CCCCOc1ccc(CC(=O)NO)cc1` [Bufexamac] reads 96.7; that for `NC[C@H]1CC[C@H](C(=O)O)CC1` [Tranexamic acid], 47.

Regarding `C=CCc1ccccc1OCC(O)CNC(C)C` (centres undefined) [Alprenolol hydrochloride], the “mean cytoplasmic OPP incorporation” value was found to be 106. For `Cc1ccc(O)c([C@H](CCN(C(C)C)C(C)C)c2ccccc2)c1` [Tolterodine tartrate (Detrol LA)] the value was 105. On to `CCCCC[C@H](CC(=O)NO)C(=O)N[C@H](C(=O)N1CCC[C@H]1CO)C(C)C` [Actinonin], for which the “mean cytoplasmic OPP incorporation” value came out at 93.8.

As to `O=C(O)c1cc(=O)c2c(OCC(O)COc3cccc4oc(C(=O)O)cc(=O)c34)cccc2o1` [Cromolyn disodium salt], the “mean cytoplasmic OPP incorporation” value is 105. On to `Cc1c(CC(C)(C)C(=O)O)n(Cc2ccc(Cl)cc2)c2ccc(F)cc12`, for which the “mean cytoplasmic OPP incorporation” value was 99.3. In the case of `CS(=O)(=O)c1ccc(Cn2c3c(c4cc(F)cc(F)c42)CCCC3CC(=O)O)cc1` (centres undefined), the “mean cytoplasmic OPP incorporation” value came to 97.4. On to `O=c1cc(CN2CCOCC2)occ1OCCCCCSc1ccnc2cc(C(F)(F)F)ccc12`, for which the “mean cytoplasmic OPP incorporation” value stood at 116. For the molecule `CCCCCCCCCC(=O)N[C@@H](CCCN=C(N)N)C(=O)N[C@H](C(=O)N[C@@H](CCCCN)C(=O)N[C@@H](CCCN=C(N)N)C(=O)CCl)C(C)C`, the “mean cytoplasmic OPP incorporation” value turned out to be 108. As for `CCOc1ccc(Cc2cc([C@@H]3O[C@H](CO)[C@@H](O)[C@H](O)[C@H]3O)ccc2Cl)cc1` [Dapagliflozin], the “mean cytoplasmic OPP incorporation” value came to 102. The result for `CN(C)CCN1C(=O)c2cccc3cc(N)cc(c23)C1=O` [Amonafide] reads 58.8. For `CCN(CC)CCNC(=O)c1c(C)[nH]c(/C=C2\C(=O)Nc3ccc(Cl)cc32)c1C` the value was 124; for `CN(C)CCC(c1ccccc1)c1ccccn1` (centres undefined) [Pheniramine maleate], 105; for `Cc1cccc(Nc2nc(-c3ccncc3)cs2)c1`, 114.

`O=[N+]([O-])c1cc(Cl)ccc1S(=O)(=O)N1CCN(Cc2ccccc2)CC1`: the “mean cytoplasmic OPP incorporation” value was 98.9. Regarding `CCSc1ccc2c(c1)N(CCCN1CCN(C)CC1)c1ccccc1S2` [Thiethylperazine dimalate], the “mean cytoplasmic OPP incorporation” value worked out at 114. Turning to `CCCCc1nn(-c2ccccc2C(F)(F)F)c(=O)n1Cc1ccc(-c2ccccc2S(=O)(=O)NC(=O)c2sccc2C)cc1`, the “mean cytoplasmic OPP incorporation” value came to 97.2.
